According to article PMC4336329 (PLoS ONE, 2015):
Among all 310,000 compounds or so, about 14,000 (4.5%) showed an effect of 50% or more. The effect is printed as a negative number. Some of the results follow.

Molecular target: human ether-à-go-go-related gene (hERG) potassium channel (human, UniProt Q12809)
Test: primary screen, population patch clamp on CHO cells stably expressing hERG
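Further: peak tail current of the secondary pulse compared with the same well before compound.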

human ether-à-go-go-related gene (hERG) potassium channel, sequence (Q12809 whole entry, looked up): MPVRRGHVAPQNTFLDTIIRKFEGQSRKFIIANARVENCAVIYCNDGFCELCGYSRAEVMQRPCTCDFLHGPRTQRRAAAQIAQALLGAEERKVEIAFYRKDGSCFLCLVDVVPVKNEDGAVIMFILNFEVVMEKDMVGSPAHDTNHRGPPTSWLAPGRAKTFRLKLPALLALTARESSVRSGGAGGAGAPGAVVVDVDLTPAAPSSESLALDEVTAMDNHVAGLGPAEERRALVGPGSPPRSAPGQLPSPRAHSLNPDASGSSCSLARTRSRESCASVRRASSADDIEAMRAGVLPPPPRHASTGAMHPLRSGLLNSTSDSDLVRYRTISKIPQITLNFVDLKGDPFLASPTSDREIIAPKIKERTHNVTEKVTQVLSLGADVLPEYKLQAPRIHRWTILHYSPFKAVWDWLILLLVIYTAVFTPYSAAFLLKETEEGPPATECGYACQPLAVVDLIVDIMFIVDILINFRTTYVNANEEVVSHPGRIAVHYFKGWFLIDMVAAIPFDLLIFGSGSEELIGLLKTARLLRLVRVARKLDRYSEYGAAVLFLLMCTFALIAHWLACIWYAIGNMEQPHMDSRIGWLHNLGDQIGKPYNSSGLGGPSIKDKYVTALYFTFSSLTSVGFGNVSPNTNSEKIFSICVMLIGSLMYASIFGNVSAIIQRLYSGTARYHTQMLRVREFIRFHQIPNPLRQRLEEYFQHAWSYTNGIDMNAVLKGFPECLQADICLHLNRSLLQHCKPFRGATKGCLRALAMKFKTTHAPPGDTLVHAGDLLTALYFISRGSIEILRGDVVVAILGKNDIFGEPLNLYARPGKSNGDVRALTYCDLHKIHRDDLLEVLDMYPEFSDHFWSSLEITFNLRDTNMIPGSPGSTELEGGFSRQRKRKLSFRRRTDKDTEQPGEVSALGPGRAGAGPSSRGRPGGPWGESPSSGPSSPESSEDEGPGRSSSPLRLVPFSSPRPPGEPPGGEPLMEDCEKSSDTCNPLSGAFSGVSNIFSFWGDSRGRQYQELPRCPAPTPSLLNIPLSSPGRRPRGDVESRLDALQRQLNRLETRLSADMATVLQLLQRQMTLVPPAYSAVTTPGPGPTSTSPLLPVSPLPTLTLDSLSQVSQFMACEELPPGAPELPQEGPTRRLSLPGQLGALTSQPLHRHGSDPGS

SMILES	hERG current change (%, negative = inhibition) at 10uM [%]
Nc1nc(Nc2ccccc2F)nc(NCc2ccccc2)c1[N+](=O)[O-]	6.87
O=C(CCl)N(Cc1cc(=O)[nH]c2ccccc12)c1ccccc1	0.288
N#Cc1c(-c2ccccc2)nc(SCC(=O)Nc2ccccc2)[nH]c1=O	14.4
CC1(C)COC(c2cc([N+](=O)[O-])ccc2Cl)=N1	7.81
CC(=O)Nc1ccc(S(=O)(=O)NCCOc2ccc(Cl)cc2C)cc1	-6.33
COc1cccc(CNC(=O)CCC2CCCN(C(=O)c3cccnc3SC)C2)c1 (stereo not drawn)	7.1
Cc1cc(C)c(C#N)c(N2CCN(Cc3ccccc3)CC2)n1	-24.3
Cc1ccccc1CCN(C(=O)c1csnn1)C(C(=O)NC1CCCC1)c1ccco1 (stereo not drawn)	-9.55
Cc1ccc(C(=O)Nc2cccc(S(=O)(=O)N3CCCCC3)c2)cc1[N+](=O)[O-]	-7.47
CC(=O)c1sc(N/N=C/c2ccc(C(C)C)cc2)nc1C	21.3
COc1ccc(S(=O)(=O)N2CCCN(CC(=O)Nc3ccc4c(c3)OCO4)CC2)cc1	-61.5
Cc1occc1-c1nnc(SCC(=O)NCc2ccco2)n1CC(C)C	5.18
CCc1ccc(-c2cc(C)no2)cc1S(=O)(=O)N1CCN(c2ccc(C(C)=O)cc2)CC1	-4.32
Cc1ccc(NC(=S)NC(=O)/C=C/c2ccco2)c(O)c1	2.91
COc1ccc2oc(=O)c(NC(=O)C3CCCCC3)cc2c1	-2.23
Cc1nn(-c2ccccc2)c(C)c1C(=O)Nc1nnc(-c2ccco2)o1	-5.59
CC(=O)c1c(Cl)nc2ccc(Br)cc2c1-c1ccccc1	21.7
Brc1ccc(C2Nc3cccc4cccc(c34)N2)o1	10
C/C(=C\[C@@H](NP(=O)(c1ccccc1)c1ccccc1)c1ccccc1)CO[Si](c1ccccc1)(c1ccccc1)C(C)(C)C	5.58
Cl.c1csc(CNCc2ccncc2)c1	21.8
COc1ccc(Cn2c(C3CC3)nc3ccc(NC(=O)c4cccnc4)cc3c2=O)cc1	-42.6

SMILES	hERG current change (%, negative = inhibition) at 10uM [%]
O=C(O)CCC(=O)NN1C(=O)c2ccccc2NC1c1ccco1 (stereo not drawn)	11
COc1ccc(-n2c(=O)c3ccccc3n(Cc3ccc(F)cc3)c2=O)cc1OC	7.94
CC(Sc1cccc[n+]1[O-])C(=O)Nc1cccc(S(=O)(=O)N2CCOCC2)c1 (stereo not drawn)	13.6
Cn1c(=O)c2c(ncn2Cc2ccc(Cl)c(Cl)c2)n(C)c1=O	-0.364
COC(=O)CC1Oc2ccccc2N(Cc2ccc(C)cc2)C1=O (stereo not drawn)	-13.5
Cc1ccc(-c2nc3cc(C)ccc3o2)cc1	13.2
COC(=O)N[C@@H]1C[C@H]2[C@@H]3CC[C@H]4C[C@@H](OC)CC[C@]4(C)[C@H]3CC[C@]12C	5.72
COc1ccc(C(C(=O)NC(C)(C)C)N(C(=O)Cn2nnc3ccccc32)c2cccc(C(C)=O)c2)cc1O (stereo not drawn)	-7.64
CC(=O)c1c(N)[nH]c(-c2ccccc2)nc1=S	15.7
COc1ccc(C(=O)Nc2ccc(-c3ccc(NC(=O)c4ccc(OC)cc4)c(OC)c3)cc2OC)cc1	8.52
O=C(Nc1nc(-c2ccccc2)cs1)c1cccs1	-19.1
CCOC(=O)c1sc(NC(=O)c2cc(-c3cccc(O)c3)on2)c(C(=O)OCC)c1C	17.8
CC(=O)Nc1ccc(OCCC[n+]2cccc(C(=O)[O-])c2)cc1	12.5
COC(=O)c1c(C)c[nH]c1C	13.4
COc1ccc(C(=O)CSc2nnc(-c3cc(C)cc(C)c3)o2)cc1	15.7
CCOc1ccc(NS(=O)(=O)c2cc(C(=O)NCCCN3CCOCC3)ccc2C)cc1	-1.83
CC(C)NCCCCOc1cccc(Br)c1.O=C(O)C(=O)O	-25.8
O=C(C1CCCN(S(=O)(=O)c2cccc3nsnc23)C1)N1CCN(c2ccccn2)CC1 (stereo not drawn)	-50.2
CCCOc1ccc(-c2c(C(=O)N/N=C/c3ccccc3OCC)nnn2-c2nonc2N)cc1	22.7
Cc1ccc2c(c1)N(N=O)CCC2	1.2
Cc1ccc([N+](=O)[O-])cc1-c1ccc(/C=N/NC(=O)c2cc3c(ccc4ccccc43)o2)o1	28.7

SMILES	hERG current change (%, negative = inhibition) at 10uM [%]
COc1cc(OC)cc(-c2c(-c3ccc(F)cc3)c3cc(-c4cnc(OC)nc4)ccc3n2C)c1	6.62
COc1ccc(/C=C2\SC(=S)N(CCCCCC(=O)Nc3cc(C)on3)C2=O)cc1OC	30.5
O=C(NC(=S)Nc1ccc(-c2nc3ncccc3o2)cc1)c1ccccc1F	14.5
O=C1c2cccc3cccc(c23)C(=O)N1CC1CCCO1 (stereo not drawn)	24.5
N#Cc1ccc(CSc2ncnc3c2cnn3Cc2ccccc2)cc1	12.3
CN(C)CCN(C(=O)CN1C(=O)c2ccccc2C1=O)c1nc2cc3c(cc2s1)OCCO3.Cl	-53.8
COC(=O)c1sc(NC(=O)COc2ccccc2C)nc1C	-6.1
CS(=O)(=O)N1CCN(c2ccccc2NC(=O)c2ccc([N+](=O)[O-])o2)CC1	-25.2
Cn1cc(CN(CCO)Cc2cccs2)c(-c2ccccc2F)n1	2.43
Cc1ccccc1-c1nc(CN2CCC(C(=O)N3CCN(c4ccccn4)CC3)CC2)c(C)o1	-62
Cn1c(N)c(C(=O)COC(=O)COc2ccccc2C#N)c(=O)n(C)c1=O	-23.2
CC1=C(C(=O)Nc2ccccc2)C(c2ccc(Cl)cc2)n2c(s/c(=C/c3cccc(OCC(=O)O)c3)c2=O)=N1 (stereo not drawn)	4.87
CC(C)CN1C(=O)c2ccc(C(=O)Nc3c[nH]c(=O)[nH]c3=O)cc2C1=O	25.7
COC(=O)c1cc2cc(OC)ccc2n1C	0.821
Cc1ccc(-n2c(SCC(=O)NNC(=S)Nc3ccccc3)nc3ccccc3c2=O)cc1	9.45
COc1ccc(OC)c(-c2oc3ccccc3c(=O)c2O)c1	-2.07
COc1ccccc1N1CCN(C(c2cccs2)C(C)NC(=O)c2cccs2)CC1 (stereo not drawn)	-8.54
CN(CC(=O)NCc1ccncc1)S(=O)(=O)c1ccc(F)cc1	-0.77
CCOc1ccc(NC(=O)Nc2ccc3c(c2)N(C)C(=O)CS3)cc1	-2.52
CCOc1ccc(NCc2nnc(SCc3ccccc3Cl)n2-c2ccccc2)cc1	-18.2
CCOC(=O)C1=C(C)N(CCO)C(=O)NC1c1cccc(O)c1 (stereo not drawn)	18.8

SMILES	hERG current change (%, negative = inhibition) at 10uM [%]
Cc1cccc(C)c1OCC(=O)Nc1cccc(C(=O)O)c1	5.24
COc1ccc(C(=O)Nc2cc3c(cc2OC)CCCC3)cc1Br	12.9
CCN(CC)CCCn1c2c(c(SCC(=O)Nc3cccc4ccccc34)nc1=O)CCC2	-56.6
COc1ccc(NS(=O)(=O)c2cccc(C(=O)N3CCCC3)c2)cc1	2.23
O=C(CC1(C(F)(F)F)OCCO1)Nc1ccc2c(c1)OCO2	-2.24
Cc1cc(Cl)ccc1NC(=O)CCC(=O)N/N=C/c1cc([N+](=O)[O-])ccc1O	0.318
Cc1ccc(-n2c(N)c(C(=O)N3CCOCC3)sc2=S)c(C)c1	-24.5
CC(C)CC(NC(=O)C1CCCCC1)C(=O)N1CCN(c2ccccn2)CC1 (stereo not drawn)	-19.7
COc1ccc(-c2cc(=O)[nH]c(NCc3ccccc3)n2)cc1	-1.24
Cc1ccc(NS(=O)(=O)c2cccc(C(=O)OCC(=O)NCc3ccco3)c2)cc1	-34.1
C/C(=N\Nc1nccnc1Cl)c1c(F)c(F)c(F)c(F)c1F	-20.6
CC(C)(C)C(=O)[C@@H]1[C@@H]2C(=O)N(C3CCCCC3)C(=O)[C@@H]2[C@H]2c3ccccc3C=CN12	-14
Cc1ccc2c(cnn2C(=O)CCC(=O)NC2CCCCC2)c1	-3.77
COc1ccc(N2CCN(C(=S)Nc3cc(C)cc(C)c3)CC2)cc1	-9.32
c1ccc2c(NC3=NCCCCS3)cccc2c1	-18.5
CCOc1cc(C=O)ccc1OCCSc1ccc(C)cc1	-18.9
CCNC(=O)NC(=O)C(C)Sc1ncc(C(F)(F)F)cc1Cl (stereo not drawn)	6.93
Cc1cc(NC(=O)c2ccc([N+](=O)[O-])cc2Cl)ccc1NC(=O)c1ccco1	3.44
COC(=O)c1sc(C(F)(F)F)c(-c2ccccc2)c1S(=O)(=O)N1CCCC1	-14.1
O=C(CN1C(=O)c2ccccc2C1=O)NCC1CCCO1 (stereo not drawn)	-9.91
CC(C)c1ccc(NC(=S)Nc2ccc3cn[nH]c3c2)cc1	30.6
